# The list shows a part of the results.
# System: HSkMC (human skeletal muscle cells)
# Assay: cytotoxicity call (relative viability < 0.9)
# Conditions: 10 µM
row,SMILES,cytotoxicity call
1,Cn1cnc(S(=O)(=O)N[C@@H]2CC[C@H](CC(=O)Nc3ccccc3)O[C@H]2CO)c1,inactive
2,C[C@@H]1CN([C@H](C)CO)C(=O)Cc2cc(NS(=O)(=O)c3cccs3)ccc2O[C@H]1CN(C)S(=O)(=O)c1ccc(F)cc1,inactive
3,C[C@@H]1CCCCO[C@@H](CN(C)S(=O)(=O)c2ccc(Cl)cc2)[C@H](C)CN([C@H](C)CO)C(=O)c2cc(NS(=O)(=O)c3ccc(F)cc3)ccc2O1,inactive
4,Cc1noc(C)c1NC(=O)Nc1cccc2c1O[C@H](CN(C)Cc1ccc(C(=O)Nc3ccccc3N)cc1)[C@H](C)CN([C@H](C)CO)C2=O,inactive
5,O=C(CN1CCOCC1)N[C@@H]1CC[C@H](CCNS(=O)(=O)c2ccccc2F)O[C@H]1CO,inactive
6,Cc1ccc(S(=O)(=O)N2C[C@H](O)COC[C@H]3O[C@@H](CC(=O)NCCN4CCCCC4)CC[C@@H]32)cc1,inactive
7,C[C@@H]1CCCCO[C@@H](CN(C)C(=O)C2CCCCC2)[C@H](C)CN([C@@H](C)CO)C(=O)c2cc(NC(=O)C3CCCCC3)ccc2O1,inactive
8,CCOCCOc1ccccc1C(N)=O,inactive
9,C[C@H](CO)N1C[C@H](C)[C@@H](CN(C)C(=O)Nc2cccc3ccccc23)Oc2c(NS(=O)(=O)c3ccc(Cl)cc3)cccc2C1=O,inactive
10,C[C@@H]1CN([C@@H](C)CO)C(=O)Cc2cc(NC(=O)Nc3ccc(F)cc3)ccc2O[C@@H]1CN(C)C(=O)Nc1cccc2ccccc12,inactive
11,Cl.NNc1nncc2ccccc12,inactive

# System: HepG2
# Assay: cytotoxicity call (relative viability < 0.9)
# Conditions: 10 µM
row,SMILES,cytotoxicity call
1,Cc1noc(C)c1S(=O)(=O)N(C)C[C@H]1Oc2ccc(NC(=O)Nc3ccc4c(c3)OCO4)cc2CC(=O)N([C@@H](C)CO)C[C@H]1C,inactive
2,OC[C@@H](O)[C@@H](O[C@@H]1O[C@H](CO)[C@H](O)[C@H](O)[C@H]1O)[C@H](O)[C@@H](O)CO,inactive
3,C[C@@H]1CCCCO[C@H](CN(C)Cc2ccncc2)[C@@H](C)CN([C@H](C)CO)C(=O)c2cc(NS(C)(=O)=O)ccc2O1,inactive
4,COc1ccc(S(=O)(=O)N(C)C[C@@H]2Oc3c(NS(=O)(=O)c4ccc(C)cc4)cccc3C(=O)N([C@@H](C)CO)C[C@H]2C)cc1,inactive
5,O=C(C[C@@H]1C[C@H]2c3cc(NS(=O)(=O)c4ccc(F)cc4)ccc3O[C@H]2[C@@H](CO)O1)NCc1ccccc1,inactive
6,COc1cc2c(N3CCN(C(=O)Nc4ccc(OC(C)C)cc4)CC3)ncnc2cc1OCCCN1CCCCC1,inactive
7,COc1ccc(-c2cnc3c(c2)C(=O)N([C@H](C)CO)C[C@H](C)[C@H](CN(C)S(=O)(=O)c2ccccc2)O3)cc1,inactive
8,CCNC(=O)C[C@H]1CC[C@@H](NC(=O)C2CCOCC2)[C@@H](CO)O1,inactive
9,Cn1cnc(S(=O)(=O)N[C@H]2C=C[C@@H](CC(=O)N3CCN(c4ccccc4)CC3)O[C@H]2CO)c1,inactive
10,C[C@@H]1CN([C@@H](C)CO)C(=O)c2cc(NC(=O)Nc3ccc4c(c3)OCO4)ccc2O[C@@H](C)CCCCO[C@@H]1CN(C)S(=O)(=O)c1ccc(F)cc1,inactive
11,O=C(C[C@H]1C[C@H]2c3cc(NC(=O)C4CCOCC4)ccc3O[C@H]2[C@@H](CO)O1)NCc1cc(F)ccc1F,inactive
12,C[C@@H]1CN([C@@H](C)CO)C(=O)c2cc(NC(=O)Cc3cn(C)c4ccccc34)ccc2O[C@@H]1CN(C)Cc1ccc(C(F)(F)F)cc1,inactive
13,C[C@H]1CN([C@@H](C)CO)C(=O)CCCn2cc(nn2)CO[C@@H]1CN(C)S(=O)(=O)c1ccc(-n2cccn2)cc1,inactive
14,CC(C)(C)C#CC(=O)C#CC(C)(C)C,inactive
15,Cc1noc(C)c1NC(=O)Nc1ccc2c(c1)C(=O)N([C@H](C)CO)C[C@H](C)[C@@H](CN(C)Cc1ccc(C(=O)Nc3ccccc3N)cc1)O2,inactive
16,CCN1CCN(C2=C(NS(=O)(=O)c3ccc(Br)cc3)C(=O)c3ccccc3C2=O)CC1,active
17,C[C@@H]1CN([C@H](C)CO)C(=O)c2cc(NS(=O)(=O)c3ccc(Cl)cc3)ccc2O[C@@H](C)CCCCO[C@H]1CN(C)C(=O)Nc1ccc(C(F)(F)F)cc1,active
18,C[C@@H]1CCCCO[C@@H](CN(C)Cc2ccccc2)[C@@H](C)CN([C@H](C)CO)C(=O)c2cc(NC(=O)Cc3ccccc3)ccc2O1,inactive
19,C[C@H](CO)N1C[C@H](C)[C@@H](CN(C)C(=O)Nc2ccc(C(F)(F)F)cc2)Oc2c(NS(=O)(=O)c3ccc(F)cc3)cccc2C1=O,inactive
20,Cc1noc(C)c1NC(=O)N(C)C[C@@H]1Oc2ccc(NC(=O)c3ccncc3)cc2CC(=O)N([C@@H](C)CO)C[C@@H]1C,inactive

row,SMILES,cytotoxicity call
1,Cn1cnc(S(=O)(=O)N2C[C@H](O)COC[C@@H]3O[C@H](CC(=O)NCc4cc(F)cc(F)c4)CC[C@H]32)c1,inactive
2,C[C@@H]1CCCCO[C@H](CN(C)Cc2ccc(C(=O)O)cc2)[C@@H](C)CN([C@H](C)CO)C(=O)c2cc(NC(=O)Cc3ccccc3)ccc2O1,inactive
3,C[C@H]1CN([C@@H](C)CO)C(=O)c2cc(NC(=O)CCCN(C)C)ccc2O[C@@H]1CN(C)C(=O)Nc1ccc2c(c1)OCO2,inactive
4,C[C@@H]1CN([C@H](C)CO)S(=O)(=O)c2ccc(-c3ccncc3)cc2O[C@H]1CN(C)Cc1ccc(Oc2ccccc2)cc1,inactive
5,C[C@H](CO)N1C[C@H](C)[C@@H](CN(C)S(=O)(=O)c2cn(C)cn2)Oc2ccc(NS(=O)(=O)c3cccs3)cc2C1=O,inactive
6,C[C@H](O)CC1=C[C@H](O)[C@@H](C)OC1=O,inactive
7,C[C@H]1CN([C@@H](C)CO)C(=O)Cc2cc(NS(=O)(=O)c3cccs3)ccc2O[C@@H]1CN(C)S(=O)(=O)c1cccs1,inactive
8,C[C@H](O)c1nc(=O)c2ccccc2[nH]1,inactive
9,CO[C@H]1C[C@@H](C[C@@H](C)[C@H]2CC(=O)[C@@H](C)/C=C(\C)[C@@H](O)[C@@H](OC)C(=O)[C@@H](C)C[C@@H](C)/C=C/C=C/C=C(\C)[C@H](OC)C[C@H]3CC[C@@H](C)[C@@](O)(O3)C(=O)C(=O)N3CCCC[C@@H]3C(=O)O2)CC[C@@H]1O,inactive
10,Cn1cnc(S(=O)(=O)N[C@@H]2CC[C@H](CC(=O)Nc3ccccc3)O[C@H]2CO)c1,inactive
11,C[C@@H]1CN([C@H](C)CO)C(=O)Cc2cc(NS(=O)(=O)c3cccs3)ccc2O[C@H]1CN(C)S(=O)(=O)c1ccc(F)cc1,inactive
12,C[C@@H]1CCCCO[C@@H](CN(C)S(=O)(=O)c2ccc(Cl)cc2)[C@H](C)CN([C@H](C)CO)C(=O)c2cc(NS(=O)(=O)c3ccc(F)cc3)ccc2O1,inactive
13,Cc1noc(C)c1NC(=O)Nc1cccc2c1O[C@H](CN(C)Cc1ccc(C(=O)Nc3ccccc3N)cc1)[C@H](C)CN([C@H](C)CO)C2=O,inactive
14,O=C(CN1CCOCC1)N[C@@H]1CC[C@H](CCNS(=O)(=O)c2ccccc2F)O[C@H]1CO,inactive
15,Cc1ccc(S(=O)(=O)N2C[C@H](O)COC[C@H]3O[C@@H](CC(=O)NCCN4CCCCC4)CC[C@@H]32)cc1,inactive
16,C[C@@H]1CCCCO[C@@H](CN(C)C(=O)C2CCCCC2)[C@H](C)CN([C@@H](C)CO)C(=O)c2cc(NC(=O)C3CCCCC3)ccc2O1,inactive
17,CCOCCOc1ccccc1C(N)=O,inactive
18,C[C@H](CO)N1C[C@H](C)[C@@H](CN(C)C(=O)Nc2cccc3ccccc23)Oc2c(NS(=O)(=O)c3ccc(Cl)cc3)cccc2C1=O,inactive
19,C[C@@H]1CN([C@@H](C)CO)C(=O)Cc2cc(NC(=O)Nc3ccc(F)cc3)ccc2O[C@@H]1CN(C)C(=O)Nc1cccc2ccccc12,inactive
20,Cl.NNc1nncc2ccccc12,inactive

# Source: the antibiotic and cytotoxicity screens of Wong et al. (2023)
